Data from a collection of fitness landscapes (doi:10.1126/science.1257360).
Some of the results follow.

B1: PhoQ; a variant is named by its letters at X, in order, P23837 (parent)
chain: MKKLLRLFFPLSLRVRFLLATAAVVLVLSLAYGMVALIGYSVSFDKTTFRLLRGESNLFYTLAKWENNKLHVELPENIDKQSPTMTLIYDENGQLLWAQRDVPWLMKMIQPDWLKSNGFHEIEADVNDTSLLLSGDHSIQQQLQEVREDDDDAEMTHSVAVNVYPATSRMPKLTIVVVDTIPVELKSSYMVWSWFIYVLSANLLLVIPLLWVAAWWSLRPIEALAKEVRELEEHNRELLNPATTRELTSLVRNLNRLLKSERERYDKYRTTLTDLTHSLKTPLXXLQXXLRSLRSEKMSVSDAEPVMLEQISRISQQIGYYLHRASMRGGTLLSRELHPVAPLLDNLTSALNKVYQRKGVNISLDISPEISFVGEQNDFVEVMGNVLDNACKYCLEFVEISARQTDEHLYIVVEDDGPGIPLSKREVIFDRGQRVDTLRPGQGVGLAVAREITEQYEGKIVAGESMLGGARMEVIFGRQHSAPKDE

Variants of: B1
Experiment: enrichment ratio after two sorts for PhoP signalling (ratio (wild type AVST 3.29)); higher = more functional
Conditions: with PhoP (E. coli)
For IAPQ, the enrichment ratio was at most 0.25.
Variant ANKM has an enrichment ratio of at most 0.25.
In the case of DFQH, the enrichment ratio is reported as at most 0.25.
Variant DIYS has an enrichment ratio of at most 0.25.
FHYR gave an enrichment ratio of at most 0.25.
With GRKA the enrichment ratio was at most 0.25.
Work on VLFR yielded an enrichment ratio of at most 0.25.
For SPKY, the enrichment ratio was at most 0.25.
With GDKG the enrichment ratio was at most 0.25.
For SFIM, the enrichment ratio was at most 0.25.
Work on IYCW yielded an enrichment ratio of at most 0.25.
For HPQM, the enrichment ratio was at most 0.25.
With MTYP the enrichment ratio was at most 0.25.
In the case of NYRY, the enrichment ratio is reported as at most 0.25.
With NFYD the enrichment ratio was at most 0.25.
For LRRT, the enrichment ratio was at most 0.25.
NPMD was tested, and the enrichment ratio was at most 0.25.
Work on YGEN yielded an enrichment ratio of at most 0.25.
PPSL showed an enrichment ratio of at most 0.25.
YFVD was tested, and the enrichment ratio was at most 0.25.
With RYIT the enrichment ratio was at most 0.25.
LWMA was tested, and the enrichment ratio was at most 0.25.
Variant FNLM has an enrichment ratio of 5.75.
ILPV gave an enrichment ratio of at most 0.25.
With GCMT the enrichment ratio was at most 0.25.
In the case of VATY, the enrichment ratio is reported as at most 0.25.
VCMM was tested, and the enrichment ratio was 2.29.
For WYSA, the enrichment ratio was at most 0.25.
FWKV was tested, and the enrichment ratio was at most 0.25.
Work on DQGE yielded an enrichment ratio of at most 0.25.
ILHH gave an enrichment ratio of at most 0.25.
ERAG gave an enrichment ratio of at most 0.25.
WWPI gave an enrichment ratio of at most 0.25.
In the case of MTTW, the enrichment ratio is reported as at most 0.25.
FDNC gave an enrichment ratio of at most 0.25.
Work on FWCV yielded an enrichment ratio of at most 0.25.
For MPGK, the enrichment ratio was at most 0.25.
WRRL was tested, and the enrichment ratio was at most 0.25.
Variant KDKW has an enrichment ratio of at most 0.25.
For ANQT, the enrichment ratio was at most 0.25.
With SCWN the enrichment ratio was at most 0.25.
In the case of WHNF, the enrichment ratio is reported as at most 0.25.
In the case of WNHN, the enrichment ratio is reported as at most 0.25.
WSHI was tested, and the enrichment ratio was at most 0.25.
With KAMF the enrichment ratio was at most 0.25.
With YCFD the enrichment ratio was at most 0.25.
In the case of QPWK, the enrichment ratio is reported as at most 0.25.
Work on GRAI yielded an enrichment ratio of at most 0.25.
WTVD was tested, and the enrichment ratio was at most 0.25.
For HMVL, the enrichment ratio was at most 0.25.
With LHAG the enrichment ratio was at most 0.25.
Variant IRWL has an enrichment ratio of at most 0.25.
Work on ECSD yielded an enrichment ratio of at most 0.25.
VKIC gave an enrichment ratio of at most 0.25.
AWHF was tested, and the enrichment ratio was at most 0.25.
For NQSE, the enrichment ratio was at most 0.25.
Variant IWQY has an enrichment ratio of at most 0.25.
Work on EPGQ yielded an enrichment ratio of at most 0.25.
HFAK was tested, and the enrichment ratio was at most 0.25.
Variant AWKT has an enrichment ratio of at most 0.25.
Variant HGDH has an enrichment ratio of at most 0.25.
In the case of YYID, the enrichment ratio is reported as at most 0.25.
With VLCW the enrichment ratio was at most 0.25.
For AMKP, the enrichment ratio was at most 0.25.
In the case of HKYA, the enrichment ratio is reported as at most 0.25.
FMEY gave an enrichment ratio of at most 0.25.
EGTL showed an enrichment ratio of at most 0.25.
EYCF was tested, and the enrichment ratio was at most 0.25.
IAKT gave an enrichment ratio of at most 0.25.
MSED was tested, and the enrichment ratio was at most 0.25.
FKPT was tested, and the enrichment ratio was at most 0.25.
Variant DQER has an enrichment ratio of at most 0.25.
With MYMH the enrichment ratio was at most 0.25.
In the case of LSKA, the enrichment ratio is reported as at most 0.25.
With LFGC the enrichment ratio was at most 0.25.
For QSIK, the enrichment ratio was at most 0.25.
For MRIW, the enrichment ratio was at most 0.25.
GWWG was tested, and the enrichment ratio was at most 0.25.
With VVCF the enrichment ratio was at most 0.25.
Work on HMSM yielded an enrichment ratio of at most 0.25.
With LVLN the enrichment ratio was at most 0.25.
With RGVD the enrichment ratio was at most 0.25.
WTQK was tested, and the enrichment ratio was at most 0.25.
With KDYM the enrichment ratio was at most 0.25.
DYQG was tested, and the enrichment ratio was at most 0.25.
DDKE gave an enrichment ratio of at most 0.25.
Variant QDGF has an enrichment ratio of at most 0.25.
Variant QHYL has an enrichment ratio of at most 0.25.
With QESM the enrichment ratio was 5.67.
In the case of QLTD, the enrichment ratio is reported as at most 0.25.
For MFWV, the enrichment ratio was at most 0.25.
In the case of SAQI, the enrichment ratio is reported as 2.
LCAC gave an enrichment ratio of at most 0.25.
LFQQ was tested, and the enrichment ratio was at most 0.25.
AEGM was tested, and the enrichment ratio was at most 0.25.
ICHA showed an enrichment ratio of at most 0.25.
In the case of PQSE, the enrichment ratio is reported as at most 0.25.
Work on STFQ yielded an enrichment ratio of 5.1.
LTIS gave an enrichment ratio of at most 0.25.
IHVL showed an enrichment ratio of at most 0.25.
Work on HHYY yielded an enrichment ratio of at most 0.25.
DWFA showed an enrichment ratio of at most 0.25.
MGTC showed an enrichment ratio of 0.695.
YGWP showed an enrichment ratio of at most 0.25.
Work on EEQG yielded an enrichment ratio of at most 0.25.
ESGA showed an enrichment ratio of at most 0.25.
VLSS showed an enrichment ratio of 0.29.
With KSTD the enrichment ratio was at most 0.25.
For FNWW, the enrichment ratio was at most 0.25.
QALE was tested, and the enrichment ratio was at most 0.25.
FFWD gave an enrichment ratio of at most 0.25.
DWRN gave an enrichment ratio of at most 0.25.
YTMP gave an enrichment ratio of at most 0.25.
In the case of LLWP, the enrichment ratio is reported as at most 0.25.
With VHVN the enrichment ratio was at most 0.25.
Work on RSFM yielded an enrichment ratio of at most 0.25.
For YKRR, the enrichment ratio was at most 0.25.
Work on KAFF yielded an enrichment ratio of at most 0.25.
IRIP was tested, and the enrichment ratio was at most 0.25.
For TLYA, the enrichment ratio was at most 0.25.
IDMC showed an enrichment ratio of at most 0.25.
GHCE was tested, and the enrichment ratio was at most 0.25.
DFYI showed an enrichment ratio of at most 0.25.
QEMS gave an enrichment ratio of 2.2.
Variant AITE has an enrichment ratio of at most 0.25.
FWCW showed an enrichment ratio of at most 0.25.
With NPVC the enrichment ratio was at most 0.25.
With NHAK the enrichment ratio was at most 0.25.
In the case of HYEL, the enrichment ratio is reported as at most 0.25.
DACT gave an enrichment ratio of at most 0.25.
Variant KQAA has an enrichment ratio of at most 0.25.
Variant DETH has an enrichment ratio of at most 0.25.
Work on WNYQ yielded an enrichment ratio of at most 0.25.
Variant RCGH has an enrichment ratio of at most 0.25.
In the case of MMNG, the enrichment ratio is reported as at most 0.25.
GHAE was tested, and the enrichment ratio was at most 0.25.
In the case of TVYG, the enrichment ratio is reported as at most 0.25.
TAQC gave an enrichment ratio of at most 0.25.
GWGS gave an enrichment ratio of at most 0.25.
KQRG showed an enrichment ratio of at most 0.25.
Variant TIYS has an enrichment ratio of 5.68.
In the case of TFDN, the enrichment ratio is reported as at most 0.25.
GEQV gave an enrichment ratio of at most 0.25.
Work on WAMH yielded an enrichment ratio of at most 0.25.
With APHW the enrichment ratio was at most 0.25.
For PVHD, the enrichment ratio was at most 0.25.
In the case of WRPC, the enrichment ratio is reported as at most 0.25.
LHFY showed an enrichment ratio of at most 0.25.
KHGQ gave an enrichment ratio of at most 0.25.
GKVV gave an enrichment ratio of at most 0.25.
For EPFR, the enrichment ratio was at most 0.25.
Variant GSLK has an enrichment ratio of at most 0.25.
In the case of RAEA, the enrichment ratio is reported as at most 0.25.
